Measured values as given in US20220378932A1 (published 2022).

What was measured:
[1] = target: T1, Fc fusion of the human GFRα1 extracellular domain (GFRα1:Fc fusion protein) (human, UniProt P56159 25-429, limits assumed); assay: ELISA on captured GFRα1:Fc (format of FIG. 33), CHO-derived protein
T1 construct: extracellular domain; Bought (R&D Systems), captured on plates by a mouse anti-human IgG; also called GFRα1 ECD; GFRal; not shown: Fc part of the bought fusion, captured by a mouse anti-human Fc antibody
T1 sequence (looked up): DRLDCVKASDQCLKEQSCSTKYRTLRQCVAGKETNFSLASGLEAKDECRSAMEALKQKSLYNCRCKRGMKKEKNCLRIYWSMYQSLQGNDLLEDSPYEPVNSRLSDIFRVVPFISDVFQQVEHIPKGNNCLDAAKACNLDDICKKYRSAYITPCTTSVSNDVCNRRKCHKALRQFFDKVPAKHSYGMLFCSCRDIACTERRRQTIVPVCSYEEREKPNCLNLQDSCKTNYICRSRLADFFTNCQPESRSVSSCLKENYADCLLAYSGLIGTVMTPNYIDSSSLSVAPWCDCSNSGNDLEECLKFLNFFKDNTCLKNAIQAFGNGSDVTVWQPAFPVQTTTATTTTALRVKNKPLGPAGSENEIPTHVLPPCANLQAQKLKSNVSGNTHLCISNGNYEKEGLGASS

[2] = target: T1, Fc fusion of the human GFRα1 …; assay: ELISA on GFRα1:Fc captured by mouse anti-human IgG, detection with goat anti-GDNF antibody; COS cell-derived protein
[3] = target: T2, human insulin receptor extracellular domain (HIR ECD) (human, UniProt P06213 28-956, limits assumed); assay: ELISA on plated HIR ECD, COS cell-derived protein, detection with biotinylated goat anti-human IgG; non-linear regression
T2 construct: extracellular domain

B1: HIRMAb-GDNF fusion protein (other)
heavy: QVQLQQSGPELVKPGALVKISCKASGYTFTNYDIHWVKQRPGQGLEWIGWIYPGDGSTKYNEKFKGKATLTADKSSSTAYMHLSSLTSEKSAVYFCAREWAYWGQGTLVTVSA[human IgG1 constant region cut from this listing]SSSPDKQMAVLPRRERNRQAAAANPENSRGKGRRGQRGKNRGCVLTAIHLNVTDLGLGYETKEELIFRYCSGSCDAAETTYDKILKNLSRNRRLVSDKVGQACCRPIAFDDDLSFLDDNLVYHILRKHSAKRCGCI
light: DIQMTQSPSSLSASLGERVSLTCRASQDIGGNLYWLQQGPDGTIKRLIYATSSLDSGVPKRFSGSRSGSDYSLTISSLESEDFVDYYCLQYSSSPWTFGGGTKMEIKRTVAAPSVFIFPPSDEQLKSGTASVVCLLNNFYPREAKVQWKVDNALQSGNSQESVTEQDSKDSTYSLSSTLTLSKADYEKHKVYACEVTHQGLSSPVTKSFNRGEC
notes: IgG1-neurotrophin fusion; both are written under this one molecule and the cell source is named under assay; Tritiated in the capillary assay; also called HIRMAb-GNDF; AGT-190
Work on B1 yielded an EC50 [1] of 1.44 nM, an EC50 [2] of 1.68 nM and an EC50 [3] of 0.87 nM.
